Measurements taken from PubChem BioAssay AID1159614 (National Center for Advancing Translational Sciences (NCATS), 2016).
Out of some 45,000 compounds screened, about 65 (0.1%) were called active. Calls come from the whole dose curve; as a rule, active = well fitted activation curve with a large enough effect; inconclusive = small, poorly fitted or top-dose-only effect; inactive = no such curve, though single readings can be large or run the other way. This is one part of the list.

Each molecule was assayed against Galactocerebrosidase (Homo sapiens) (UniProt P54803) (assay: A Novel Cell-Based Assay to Identify Small Molecules for B -Galactocerebrosidase). Settings: 145M-Twi-hGALC-G270D cells, HMU-beta-Gal fluorescence, 48 h; series mostly up to 57.5 µM; activation: at the top concentration.
Sequence of UniProt P54803 (P54803 whole entry, looked up): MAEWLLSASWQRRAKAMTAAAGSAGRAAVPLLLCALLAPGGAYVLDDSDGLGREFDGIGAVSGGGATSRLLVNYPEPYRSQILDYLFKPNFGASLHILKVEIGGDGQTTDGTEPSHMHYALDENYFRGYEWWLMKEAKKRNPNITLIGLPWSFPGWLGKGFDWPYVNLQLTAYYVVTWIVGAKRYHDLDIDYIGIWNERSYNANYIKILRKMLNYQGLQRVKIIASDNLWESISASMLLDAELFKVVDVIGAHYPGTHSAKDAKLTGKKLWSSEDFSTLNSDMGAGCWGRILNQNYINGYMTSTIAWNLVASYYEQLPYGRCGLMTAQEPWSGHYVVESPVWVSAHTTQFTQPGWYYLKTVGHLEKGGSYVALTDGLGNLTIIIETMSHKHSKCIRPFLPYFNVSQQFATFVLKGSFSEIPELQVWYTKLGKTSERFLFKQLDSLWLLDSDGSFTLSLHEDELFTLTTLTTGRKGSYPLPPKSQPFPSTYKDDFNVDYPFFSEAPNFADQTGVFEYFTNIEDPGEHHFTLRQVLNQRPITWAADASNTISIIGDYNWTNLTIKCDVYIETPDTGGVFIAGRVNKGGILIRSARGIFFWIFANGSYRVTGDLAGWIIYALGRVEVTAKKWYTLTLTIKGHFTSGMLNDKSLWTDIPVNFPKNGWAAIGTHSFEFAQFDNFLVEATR
Procedure, shortened: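 qHTS, 1536-well; 145M-Twi-hGALC-G270D cells (WT line also made) in DMEM/F12 + 10% FBS; compound incubation on live cells; HMU-β-gal 0.1 mM final, pH 5.2, NaTC; carbonate stop; fluorescence increase = enhanced residual activity.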
Note: 0% is about no effect; nearly all actives have a fitted effect of over 65% in size.

SMILES	activation
CCc1ccc(CNC(=O)c2cnc(N3CCCCC3)c3ccccc23)cc1	inactive: 2.52%
O=C(CN1C(=O)CC(c2ccco2)Sc2ccccc21)Nc1cccc(C(F)(F)F)c1 (centres undefined)	inactive: -26.1%
N[C@@H](Cc1cc(I)c(O)c(I)c1)C(=O)O	inactive: -10.8%
CC1CCN(S(=O)(=O)c2cc(C(=O)NCc3ccc(N(C)C)cc3)n(C)c2)CC1	inactive: -3.02%
CC(C)c1ccc(S(=O)(=O)c2cn(CC(=O)Nc3ccc(F)cc3)c3ccccc3c2=O)cc1	inactive: -9.91%
O=C(CSc1nc2c(c(=O)[nH]1)CCCC2)Nc1ccccc1C(F)(F)F	inactive: -11.4%
Cc1ccc(-c2nc(C)c(CCNC(=O)C(=O)Nc3cc(C)ccc3C)s2)cc1	inactive: -11.4%
Cc1csc2nc(-c3ccc(NS(=O)(=O)c4cccc(F)c4)cc3)cn12	inactive: -34.1%
CCc1ccccc1NC(=O)Cn1c(=O)n(Cc2ccccc2)c(=O)c2c(C)c(C(=O)N(C)C)sc21	inactive: -11.8%
COCCCNC(=O)CCCN1C(=O)CCn2nc(-c3cccn3C)cc21	inactive: -15.4%
Cc1ccccc1CN1c2ccccc2-c2nc(SCC(=O)c3ccc(Cl)cc3)ncc2S1(=O)=O	inactive: -0.525%
Cc1csc2nc(-c3cccc(NS(C)(=O)=O)c3)cn12	inactive: 9.41%
CCOc1ccc(NC(=O)Cn2c(=O)cc(C)c3c(C)nn(C)c32)cc1	inactive: -5.26%
Cc1ccc(S(=O)(=O)c2c(Nc3ccc(C)c(C)c3)sc(C(=O)c3ccc4c(c3)OCO4)c2N)cc1	inactive: -26.6%
CSc1ncc(Cl)c(C(=O)Nc2c(C(=O)Nc3cccc(C)c3)oc3ccccc23)n1	inactive: -24.4%
Cc1ccccc1-c1noc(-c2ccc(N3CCC(C)CC3)c([N+](=O)[O-])c2)n1	inactive: -2.59%
Cc1c(CN(C)C(=O)c2cc(-c3ccccc3)nc3ccc(Br)cc23)cnn1C	inactive: -3.75%
COc1cc(CNCCSc2nnnn2C)ccc1OCc1ccccc1C	inactive: -10.5%
Cc1ccccc1CNC(=O)c1ccc(NC(=O)N2CCCCc3ccccc32)cc1	inactive: 2.4%
Cc1oc2ccc(NS(=O)(=O)c3ccc(F)cc3)cc2c1C(=O)O	inactive: -20.7%
CCCOc1ccc(C2=NC(c3ccncc3)=Nc3ccc(C)cc3N2)cc1	inactive: -29.9%
Cc1ccc(-c2n[nH]c3c2C(c2ccccc2Cl)N(c2ccc(C(=O)O)cc2)C3=O)cc1 (centres undefined)	inactive: -13.9%
O=C(Nc1c(C(=O)c2ccccc2)oc2ccccc12)c1ccc(F)cc1	inactive: -9.65%
Cc1ccc(C(=O)c2cn(CC(=O)NCc3ccccc3)c3nc(C)ccc3c2=O)cc1	inactive: -14%
COc1ccc(OC)c(NC(=O)N2CC(C)Oc3ccc(C)cc32)c1 (centres undefined)	inactive: -21.1%

SMILES	activation
COc1cccc(C(=O)Nc2ccc3nc4n(c(=O)c3c2)CCCCC4)c1	inactive: -13.8%
Cc1ccc(O)c(Nc2nc3ccccc3c3nncn23)c1	inactive: -10.1%
COc1ccc(C(=O)Nc2nc(-c3nnn(-c4ccc(F)cc4F)c3C)ns2)cc1	inactive: -22.1%
Cc1cc(C)n(CC(=O)Nc2cc(F)ccc2F)c(=O)c1C#N	inactive: 9.06%
CC(C)c1nc2ccc(C(=O)NCCCN3CCN(c4ccccc4)CC3)cc2o1	inactive: -14.2%
O=C(CN1CCN(Cc2ccc(F)cc2Cl)C1=O)NCCc1ccc(Cl)cc1	inactive: -11.4%
CCOc1ccc(C(=O)Nc2ccc3oc(-c4cccc5ccccc45)nc3c2)cc1	inactive: -3.74%
O=C1CN(C(=O)c2ccc(S(=O)(=O)N3CCCC3)cc2)C(c2ccccc2)c2cc(Cl)ccc2N1 (centres undefined)	inactive: -3.59%
COc1ccc(Cl)cc1NC(=O)CSc1nnc2[nH]c(=O)cc(C)n12	inactive: -14.2%
CCOc1ccc(-c2nc(C(N)=O)c3c(n2)n(-c2ccc4c(c2)OCO4)c(=O)n3CC)cc1	inactive: -11%
COc1ccccc1CNc1ncnc2c1c(-c1ccccc1)cn2-c1ccc(Br)cc1	inactive: -7.43%
COc1cc2c(=O)c(C(=O)c3ccc(F)cc3)cn(Cc3cccc(F)c3)c2cc1OC	inactive: -7.42%
Cc1ccc(C(=O)NCCC(C)C)cc1NC(=O)c1nsc2ccccc12	inactive: -5.63%
CCN(CC)c1ccc(NC(=O)Cn2c3ncccc3c(=O)n2-c2ccccc2)c(C)c1	inactive: -15.1%
CC1=C(C(N)=O)C(c2ccccc2F)n2nc(-c3ccc(Cl)cc3)nc2N1 (centres undefined)	inactive: -5.29%
COC(=O)c1cc(S(=O)(=O)N2CCN(c3cc(Cl)ccc3C)CC2)c[nH]1	inactive: 5.67%
O=S(=O)(NCC(c1ccco1)N1CCOCC1)c1ccc(F)cc1 (centres undefined)	inactive: 2.65%
Cc1cc(C)c2oc(C(=O)Nc3c(C(=O)c4ccccc4)oc4ccccc34)cc(=O)c2c1	inactive: -14.9%
Cc1ccc(CNC(=O)Cn2cc3c(n2)-c2c(oc(C(=O)N4CCOCC4)c2C)CC3)cc1	inactive: -3.85%
CCN(CC)CC(=O)Nc1c(C)cccc1C(=O)OC	inactive: -7.69%
Cc1ccc2c(C)c(C(=O)N3CCC(c4nc5ccccc5s4)CC3)oc2c1C	inactive: -18.7%
COc1cc(OC)c(OC)cc1CN1CCc2nc(N3CCN(c4ccccc4F)CC3)ncc2C1	inactive: -10.6%
O=C(Nc1ccccc1C(F)(F)F)Nc1c[nH]c(=O)[nH]c1=O	inactive: 6.3%
COc1ccc(Nc2c(-c3ccco3)nc3cccc(C)n23)cc1	inactive: -10.9%
